According to PubChem BioAssay AID686978 (National Center for Advancing Translational Sciences (NCATS), 2013):
Where “and” joins values, the source holds several entries; their conditions need not be identical. Equal entries are not always repeated. Out of some 420,000 compounds screened, about 64,000 (15%) were called active. Inconclusive results, whose numbers are uncertain, are shown with a selection of clear calls. Calls follow the shape of the dose curve; as a rule, active = well fitted inhibition curve with a large enough effect; inconclusive = small, poorly fitted or top-dose-only effect; inactive = flat fitted curve, though single readings scatter. Potencies of inconclusive entries are left out as doubtful fits.

assay: qHTS for Inhibitors of human tyrosyl-DNA phosphodiesterase 1 (TDP1): qHTS in cells in absence of CPT; details: DT40 Tdp1-/- hTDP1 cells, no CPT, ATP luminescence, 48 h; activity change, negative = growth inhibition: at 46.2 µM (top of the series) unless noted; also: nearly all actives have a fitted effect of over 55% in size
Outline: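 Seeded 400 DT40-hTDP1 cells/well (vehicle DMSO, no 20 nM CPT); pinned compounds; ≥48 hr at 37 °C; CellTiter-Glo luminescence as viability measure.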
% is scaled to controls: 0 for no effect and ±100 for the full control effect; potency is read from the fitted curve at half-maximal effect; tags tell the direction and shape of the fitted curve.

**Q.** For `COc1ccc(OCC(=O)Nc2cc(-c3nn(C)c(=O)c4ccccc34)ccc2N2CCOCC2)cc1`, which Potency is on record?
**A.** inconclusive [inhibitor, full curve]

**Q.** For `Cc1ccc(NC(=O)CN2CCCC2)cc1Br`, which “activity change, negative = growth inhibition” value is on record?
**A.** inactive: 3.68%

**Q.** For `COc1cccc(NC(=O)CN(C)C(=O)c2ccccc2OCC(=O)Nc2cccc(C(F)(F)F)c2)c1`, which Potency is on record?
**A.** inconclusive [inhibitor, single point]

**Q.** For `CCCc1nc(SCC(=O)NC2CC2)c2c(C)c(C)sc2n1`, which Potency is on record?
**A.** inconclusive [inhibitor, partial curve]

**Q.** With `Clc1ccc(Cn2cc(/C=N/n3cnnc3)c3ccccc32)cc1` as the compound, how does the Potency read?
**A.** inconclusive [inhibitor, single point]

**Q.** For `Cc1csc(=O)n1CC(=O)OCC(=O)Nc1ccccc1C(C)C`, which “activity change, negative = growth inhibition” value is on record?
**A.** inactive: 6.7%

**Q.** Which “activity change, negative = growth inhibition” value does the source give for `CCOc1cc(NS(=O)(=O)c2ccc(NC(C)=O)cc2)c(OCC)cc1NC(=O)C(C)C` here?
**A.** inactive: -22.8%

**Q.** For `Cc1ccc(S(=O)(=O)N2CCOCC2)cc1C(=O)Nc1nc2ccccc2[nH]1`, which activity change, negative = growth inhibition is on record?
**A.** inconclusive: -30.5% [inhibitor]

**Q.** Which Potency does the source give for `COc1ccc(NC(=O)Nc2nnc(N3CCCCCC3)s2)cc1` here?
**A.** inconclusive [inhibitor, single point]

**Q.** For `COc1ccc(S(=O)(=O)N2CCCCC2c2cc(C(=O)Nc3ccc(F)c(Cl)c3)no2)cc1` (stereo unspecified), which Potency is on record?
**A.** active: 16.4 µM

**Q.** For `COc1ccc(CSc2nnnn2C)cc1[N+](=O)[O-]`, which “activity change, negative = growth inhibition” value is on record?
**A.** inactive: -0.693%

**Q.** Which Potency does the source give for `CSc1ccccc1NC(=O)c1cnc2sc(C)cn2c1=O` here?
**A.** inconclusive [inhibitor, single point]

**Q.** For `CN1CC[C@@H]2C(=O)N3CCc4ccc(Br)cc4[C@@H]3C[C@@H]21`, which “activity change, negative = growth inhibition” value is on record?
**A.** inactive: -6.55%

**Q.** With `O=C(CCCOc1ccc(Cl)cc1Cl)N1CCN(c2ccccn2)CC1` as the compound, how does the Potency read?
**A.** inconclusive [inhibitor, single point]

**Q.** With `Cc1onc(-c2ccccc2Cl)c1C(=O)OCC(=O)N1CCCc2ccccc21` as the compound, how does the Potency read?
**A.** inconclusive [inhibitor, single point]

**Q.** Which “activity change, negative = growth inhibition” value does the source give for `CC1=CC2=NC(=O)CC(C)(C(=O)N(CC(=O)NC(C)(C)C)Cc3ccccc3)N2C=C1` (stereo unspecified) here?
**A.** inactive: -4.59%

**Q.** With `O=C(NC(c1ccccc1)c1ccccc1)c1ccc(=O)[nH]n1` as the compound, how does the Potency read?
**A.** inconclusive [inhibitor, single point]

**Q.** With `COc1ccc2nc(SCC(=O)NCCc3ccccc3)[nH]c2c1` as the compound, how does the Potency read?
**A.** inconclusive [inhibitor, single point]

**Q.** Which Potency does the source give for `Cc1c(NC(=O)c2cc([N+](=O)[O-])ccc2N2CCOCC2)cccc1-c1nc2ccccc2o1` here?
**A.** active: 25.9 µM

**Q.** With `COc1ccc(NC(=O)COc2ccccc2C)cc1S(=O)(=O)N1CCCCC1` as the compound, how does the Potency read?
**A.** active: 8.2 µM

**Q.** For `CC1C(=O)N(Cc2cn(Cc3ccco3)nn2)CCS(=O)(=O)N1Cc1ccc(-c2ccccc2Cl)cc1` (stereo unspecified), which Potency is on record?
**A.** inconclusive [inhibitor, single point]

**Q.** For `CC(=O)NCCNC(=O)c1cnn(-c2nccc(-c3cc(C)sc3C)n2)c1C`, which “activity change, negative = growth inhibition” value is on record?
**A.** inactive: -7.11%

**Q.** For `Cc1ccc(C(=O)Nc2c(-c3ccccc3)nc3ccccn23)cc1C`, which Potency is on record?
**A.** inconclusive [inhibitor, single point]

**Q.** With `Cc1ccsc1C(=O)N1CC=C(c2ccccc2)CC1` as the compound, how does the Potency read?
**A.** inconclusive [inhibitor, single point]

**Q.** For `COc1ccc(NC(C)=O)cc1NC(=O)CN1CCN(C2c3ccccc3-c3ccccc32)CC1`, which Potency is on record?
**A.** inconclusive [inhibitor, single point]

**Q.** With `COc1ccc(NC(=O)c2nnn(Cc3ccccc3C)c2N)c(OC)c1` as the compound, how does the Potency read?
**A.** active: 6.51 µM

**Q.** Which Potency does the source give for `CCOc1ccc(S(=O)(=O)N(CC)CC(=O)NCc2ccccn2)cc1C` here?
**A.** inconclusive [inhibitor, single point]

**Q.** With `COc1ccccc1CNC(=O)COC(=O)c1cc(S(=O)(=O)N2CCOCC2)ccc1Cl` as the compound, how does the activity change, negative = growth inhibition read?
**A.** inconclusive: -34% [inhibitor]

**Q.** Which “activity change, negative = growth inhibition” value does the source give for `Cc1ccc(CNC(=O)Cn2c3ncccc3c(=O)n2-c2ccccc2)cc1` here?
**A.** inactive: -22.1%

**Q.** For `O=C(CCNC(=O)c1ccc([N+](=O)[O-])cc1)Oc1ccc(F)c(F)c1`, which “activity change, negative = growth inhibition” value is on record?
**A.** inactive: -15.4%

**Q.** Which Potency does the source give for `C=CCn1c(SCc2nc3ccccc3c(=O)[nH]2)nc2scc(C3CC3)c2c1=O` here?
**A.** active: 16.4 µM

**Q.** For `Cc1cc(C)cc(NC(=O)Nc2c(Br)cnn2C)c1`, which activity change, negative = growth inhibition is on record?
**A.** inconclusive: -30.1% [inhibitor]

**Q.** With `O=C(CSc1ccc(-c2ccccn2)nn1)Nc1ccc(F)c(F)c1` as the compound, how does the Potency read?
**A.** active: 14.6 µM and active: 20.6 µM

**Q.** For `Cc1nn2c(=O)[nH]cnc2c1Cl`, which “activity change, negative = growth inhibition” value is on record?
**A.** inactive: -8.06%

**Q.** Which Potency does the source give for `CCc1nnc(NC(=O)CSc2nnc(-c3cc4ccccc4cc3O)n2CC)s1` here?
**A.** inconclusive [inhibitor, single point]

**Q.** Which Potency does the source give for `CCC(C)(C)NC(=O)CN(C(=O)C(=O)Nc1ccc2c(c1)OCCO2)C(C)(C)CC` here?
**A.** inconclusive [inhibitor, single point]

**Q.** With `CC(C)OC(=O)Cc1nc2sc(-c3ccccc3)cc2c(=O)[nH]1` as the compound, how does the Potency read?
**A.** inconclusive [inhibitor, single point]

**Q.** Which Potency does the source give for `O=C(c1ccc(F)cc1)C1CCN(C(=O)Nc2ccc(F)cc2)CC1` here?
**A.** inconclusive [inhibitor, partial curve]

**Q.** With `CC1(C)Cc2cccc(OCC(=O)NCCOc3ccccc3)c2O1` as the compound, how does the Potency read?
**A.** inconclusive [inhibitor, single point]

**Q.** For `Cc1cccc(NC(=O)c2ccc3c(Cl)c4c(nc3c2)CCCC4)n1`, which Potency is on record?
**A.** active: 20.6 µM

**Q.** Which Potency does the source give for `COc1ccc(NC(=O)c2cc(-c3ccccc3OC)on2)cc1` here?
**A.** active: 2.82 µM

**Q.** With `CCn1c(CSc2nc3ccccc3n2C)nc2ccccc21` as the compound, how does the activity change, negative = growth inhibition read?
**A.** inconclusive: -32% [inhibitor]

**Q.** Which Potency does the source give for `CCOC(=O)c1cnn(-c2ccc(OC)cc2)c1C1CCN(C(=O)OC(C)(C)C)CC1` here?
**A.** active: 25.9 µM

**Q.** Which “activity change, negative = growth inhibition” value does the source give for `CC12CCC(=O)N1C(C(=O)Nc1ccc(F)c(Cl)c1)CS2` (stereo unspecified) here?
**A.** inactive: -27.5%

**Q.** Which Potency does the source give for `O=C(Nc1ccccc1C(=O)N1CCN(Cc2ccccc2)CC1)c1ccccn1` here?
**A.** inconclusive [inhibitor, partial curve]

**Q.** With `COC(=O)c1ccc(NC(=O)CCc2c(C)nn(-c3ccc(N4CCCC4)nn3)c2C)cc1` as the compound, how does the Potency read?
**A.** inconclusive [inhibitor, single point]

**Q.** For `Cn1nc(C(=O)Nc2cc(F)ccc2F)c2c1-c1ccccc1SC2`, which Potency is on record?
**A.** inconclusive [inhibitor, single point]

**Q.** With `CC1(c2ccc([N+](=O)[O-])cc2)NC(=O)N(CC(=O)Nc2cccnc2Cl)C1=O` (stereo unspecified) as the compound, how does the “activity change, negative = growth inhibition” value read?
**A.** inactive: 0.769%

**Q.** With `CCCCOc1ccc(C(=O)NNC(=O)C2C3C=CC(C3)C2C(=O)O)cc1` (stereo unspecified) as the compound, how does the “activity change, negative = growth inhibition” value read?
**A.** inactive: -17.2%

**Q.** Which Potency does the source give for `Cc1c(/C=N\NC(=O)C2COc3ccc(C(C)(C)C)cc3O2)c2ccccc2n1C` (stereo unspecified) here?
**A.** inconclusive [inhibitor, single point]

**Q.** With `O=C(Oc1ccc(-c2nccc(-c3ccccn3)n2)cc1)c1cccc(C(F)(F)F)c1` as the compound, how does the Potency read?
**A.** inconclusive [inhibitor, partial curve, poor fit]

**Q.** With `CC(=O)Nc1ccc(NC(=O)CN(C)CC(=O)Nc2ccccc2Br)cc1` as the compound, how does the “activity change, negative = growth inhibition” value read?
**A.** inactive: -7.39%

**Q.** Which Potency does the source give for `COc1ccccc1N1CCN(C(=O)CCc2c(C)nn(-c3ccc(N4CCCC4)nn3)c2C)CC1` here?
**A.** inconclusive [inhibitor, single point]

**Q.** With `O=C(Nc1cccnc1)c1cc(-c2cccs2)on1` as the compound, how does the Potency read?
**A.** inconclusive [inhibitor, partial curve, poor fit]

**Q.** For `O=C(c1cnsn1)N1CCC(CO)(Cc2ccc(Cl)cc2)CC1`, which Potency is on record?
**A.** inconclusive [inhibitor, single point]

**Q.** For `CCOc1ccc(NS(=O)(=O)c2ccc(C(=O)NCc3ccccn3)cc2)cc1`, which Potency is on record?
**A.** inconclusive [inhibitor, single point]

**Q.** With `CN(C)/C=N/c1nc2c(ncn2C2CC(O)C(CO)O2)c(=O)[nH]1` (stereo unspecified) as the compound, how does the “activity change, negative = growth inhibition” value read?
**A.** inactive: -1.02%

**Q.** For `Cc1cccc(-c2nc(SCc3ccc(Br)cc3)n3[nH]c(=O)cc3n2)c1`, which Potency is on record?
**A.** inconclusive [inhibitor, single point]

**Q.** For `COc1ccc(/C=C/C(=O)Nc2cccc(N3CCOCC3)c2)cc1OC`, which “activity change, negative = growth inhibition” value is on record?
**A.** inactive: -18.4%

**Q.** Which Potency does the source give for `Cc1ccn2cc(-c3cc4ccccc4oc3=O)nc2c1` here?
**A.** inconclusive [inhibitor, partial curve, poor fit]

**Q.** Which Potency does the source give for `Cc1ccc(-c2nc(SCC(=O)NCC3CCCO3)c(-c3ccc(Cl)cc3)[nH]2)cc1` (stereo unspecified) here?
**A.** active: 20.6 µM

**Q.** For `CCC(=O)NS(=O)(=O)c1ccc(-c2c(-c3ccccc3)noc2C)cc1`, which “activity change, negative = growth inhibition” value is on record?
**A.** inactive: -19.9%

**Q.** For `CCCN(c1ccc(C(C)C)cc1)S(=O)(=O)c1c(C)noc1C`, which Potency is on record?
**A.** inconclusive [inhibitor, single point]

**Q.** Which Potency does the source give for `C=CCn1c(SCC(=O)N2CCCC2=O)nc2sc(CC)cc2c1=O` here?
**A.** inconclusive [inhibitor, single point]

**Q.** Which Potency does the source give for `Cc1ccc2ccccc2c1CSc1nc(N)nc2c1ncn2CC(C)C` here?
**A.** inconclusive [inhibitor, single point]

**Q.** With `CC(Oc1ccccc1)C(=O)Nc1cccc(NC(=O)c2ccco2)c1` (stereo unspecified) as the compound, how does the Potency read?
**A.** inconclusive [inhibitor, single point]

**Q.** For `COc1cccc(NC(=O)CN(C)CC(=O)c2c(N)n(Cc3ccccc3)c(=O)n(C)c2=O)c1`, which “activity change, negative = growth inhibition” value is on record?
**A.** inactive: 5.98%

**Q.** With `COC(=O)C(C)Oc1ccc(-c2nccc(-c3cccs3)n2)cc1` (stereo unspecified) as the compound, how does the activity change, negative = growth inhibition read?
**A.** inconclusive: -37.1% [inhibitor]

**Q.** With `CC(C)CNC(=O)C1CCN(c2ccc(S(=O)(=O)N3CCOCC3)cc2[N+](=O)[O-])CC1` as the compound, how does the Potency read?
**A.** inconclusive [inhibitor, single point]

**Q.** With `COc1cccc(-c2cc3c(c4c2ccn4C)C2CCC3C2)c1` (stereo unspecified) as the compound, how does the Potency read?
**A.** inconclusive [inhibitor, single point]

**Q.** For `N#CCc1ccc(Oc2ncccn2)cc1`, which Potency is on record?
**A.** inconclusive [inhibitor, single point]
